The record followed here is the supplement of paper PMC11417369.

The other results are listed elsewhere or left out.

This test deals with PfHDP1 homeodomain (GST-tagged). The test is described as follows: gcPBM binding intensity (ln(normalized median fluorescence intensity)); higher = stronger DNA binding. In a few lines:
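GST-fused DNA-binding domains of P. falciparum, expressed in E. coli, were applied at about 25 μg on average for 1 h to an Agilent 4 × 180k array of primer-extended double-stranded 36-bp intergenic genomic probes and negative controls. Binding intensity is the highest Masliner-normalised natural-log median intensity across replicate spots of either probe orientation, measured with Alexa488 anti-GST antibody and a 488 nm scan.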
Consider “TTATATTAATAATAAAGTACAAAAAATCATATATAA [XGTACX_site799]”, for which the “gcPBM binding intensity (ln)” value is 6.67.
To “TTATTGAACTTTTATAAAACCTGTATTATTATCTCT [CACACA_negctrl_site767]” belongs 6.62.
Take “TATTTCTTATTACATACACACATATACATATATGAC [CACACA_site3201]”: the “gcPBM binding intensity (ln)” value turned out to be 6.97.
To “TCCAGGCTACACTCTAGTACTCGTAGGGTTATGAGA [XGTACX_site4945]” belongs 6.16; to “TCTTTAATGATGTGTACACAAGAAAACATTGTTAAG [CACACA_site5299]”, 7.69.
To “AAAAATAAGAGCGTAGCACACACGCATTTTATAAAT [CACACA_site8147]” belongs 6.24; to “TAGAAGCATCATTTTACACACATGCAAATGTAAAAT [CACACA_site1893]”, 6.82.
To “ACATAAGAATTTTTATGTACTCATAATATTTTATAT [XGTACX_site2398]” belongs 6.13.
Consider “TACATACTAAAAAAATGTACTTGTATTGTTTTTTTA [XGTACX_site8357]”, for which the “gcPBM binding intensity (ln)” value was determined as 6.06.
To “GAAATATTTGTAAAAACATGCATGGTACTTTTAAAA [TGCATGCA_site6]” belongs 6.77; to “TTTCTATATGGATTTGCACACATAAAAATGCTTATA [CACACA_site8751]”, 10.2; to “TATATATATATATACACATGCAAAAATTTTTAATTT [TGCATGCA_site82]”, 9.21.
On to “TTATTTAACGTATTCTCACACATATATATATATAAT [CACACA_site5226]”, for which the “gcPBM binding intensity (ln)” value is 6.75.
To TTTTTATTTTCATATGTGCACTTATATATATATATA belongs 10.2; to “TTTTTATATAAGAAAAAATTATAACAATTTGTTAAT [XGTACX_negctrl_site422]”, 5.91.
To “TTCGCTGTTTTAATTAGTACTTATATATAATATTAT [XGTACX_site1149]” belongs 7.22; to “TATTGATATATATATATATATATATGTATATACTTA [GTGCAC_negctrl_site111]”, 6.84; to “CTAAACCTTTTGAGCACACATATATATATATATATA [CACACA_site1782]”, 9.43.
Next, “AATAAAACATCATCATGTACAAAATTCGTCTTTGTA [XGTACX_site4821]”: 5.78; “AATTATATATAAAGAAGTACTATTTCAAGGAGTTTT [XGTACX_site3837]”: 6.34; “TCAAATTTTCAACATTGTACATAAATGTATAAATAT [XGTACX_site6042]”: 6.43.
Consider “CAAAATATATATGACACACACAAAAAAAGTATATTA [CACACA_site1589]”, for which the “gcPBM binding intensity (ln)” value amounted to 6.61.
Next, “TATTATTATATATATAGTACATAAAATATAAAAAAA [XGTACX_site2060]”: 6.35; “ATGTCACAATTTTTCACACACAAAATTTAAATACAT [CACACA_site5168]”: 6.73; “GCATTATTATATATTTGTACATATTTTTTTTTAAAA [XGTACX_site5436]”: 7.07.
In the case of “TAATTATGCGGACACACACACACACCCAACTAAAAA [CACACA_site5427]”, the “gcPBM binding intensity (ln)” value is 6.81.
Next, “TTTTTTTTTTAAATGTGTCCTCATTATAATATATGT [XGTACX_site5331]”: 6.24; “TTTTTTAAATTATATTATAGCAAATAAATATTAAAA [CACACA_negctrl_site1655]”: 6.06; “GGCTAAAAGTTGCACACACACAAAAAAAAAAAAAAA [CACACA_site7531]”: 9.9.
Next, “TATTTGTTCTGATCCTTTTATTCAACTTTTTTTTTT [CACACA_negctrl_site978]”: 6.5; “ACCTTAATTATAATAACACACGAAAAGTGGACACAT [CACACA_site1750]”: 7.4.
Next, “AAATTTTAATTAGACTGTACACATTTTAGAATAATT [XGTACX_site4819]”: 6.17.
Regarding “TTTTATGTTTTAAAATGTACGTGTCAATGAATAAGT [XGTACX_site6239]”, the “gcPBM binding intensity (ln)” value was found to be 6.97.
Next, “TATTATAGTCCGACTTTTTAATTTCTTTATTGTTTT [CACACA_negctrl_site1381]”: 6.18; “TGAATATTCATATGCACACAAATTAATATACATAAT [CACACA_site442]”: 10.3; “TTTTATTTTTAAAATTGTACATTATTATTGTTATTT [XGTACX_site1439]”: 6.3.
To “TTTAGATAATTCATTACACACATGTATATATATATA [CACACA_site3483]” belongs 9.02; to “TAAGGAAGAAGAAAAAGTACTAAAGGTATAAATGCG [XGTACX_site2628]”, 6.61.
To AAAAAAAAGTTGTAAGTGCATGTATATAATAATATT belongs 7.47; to “TGATCACATAATAAATGTACAAAAAAAAATTAATAA [XGTACX_site5867]”, 6.43.
Consider “AACTTGTATATATACACACACACACTGTCTTTTTTT [CACACA_site1963]”, for which the “gcPBM binding intensity (ln)” value is 7.26.
Next, “AGAACTTAATGCTGCACACAAAAAAAAGGAAAAATA [CACACA_site1353]”: 7.56.
Next, “TTCTTTAAAATGATATACGTTATAAATATATATATA [XGTACX_negctrl_site256]”: 8.24; “TATATATAATATAGTGCATGTAAAAAATAAACCATG [TGCATGCA_site932]”: 7.52.
Consider “TATATATATGGACACACACACATATATATATATTTT [CACACA_site5409]”, for which the “gcPBM binding intensity (ln)” value turned out to be 6.75.
Next, “AAAATTAATATCTTGGTGCATTTTTTAATATTATTA [GTGCAC_site9638]”: 9.54; “ACAACTATTCATCATAGTACACGCATGATATATATA [XGTACX_site1539]”: 6.42.
To “TATCTTACTTTTTGCACACACTAATATTATTGTTTA [CACACA_site4990]” belongs 11.1; to “TATAAATTAAAACATTGTACATTTTTATTATTATGT [XGTACX_site579]”, 6.2.
To “CAATTTATAAAGAAAACACACATATACATAAATACA [CACACA_site4829]” belongs 6.93; to “AAAATTTCTTATTTTGTACACACAATAAATATTCAC [CACACA_site8464]”, 6.42; to TTTTTGTTATTTTTAGTGCAGAAGAATAAATTTTAA, 7.57.
For the sequence “GCAACCTTGTGCAAATGTACAAAAAAAAAAAAAAAA [XGTACX_site679]”, the “gcPBM binding intensity (ln)” value amounted to 10.3.
To “TTTTTATTGTTGCTATATTTATAACAATTTATCATA [GTGCAC_negctrl_site75]” belongs 6.6.
Next, “AAAAAAAAAATATATTGTACAATATTGTAGCTATAT [XGTACX_site7180]”: 6.52; “TTCAATAGTAAGTATACACACATATAAATAAATAAA [CACACA_site7295]”: 6.91.
On to “AAAATTTGAAAAAGGGGTACTTAATAAAAGTTTCAT [XGTACX_site932]”, for which the “gcPBM binding intensity (ln)” value stood at 6.1.
Next, “TTACACAAGGATAAAAACATATGTATGATTATATAT [CACACA_negctrl_site654]”: 6.7; “ATACTGTATAGTCGCACACAAAAATATAAAATATTT [CACACA_site6004]”: 6.65; “CTACATATGTATAATATGCACACGTCATTTTCCCCT [CACACA_site2107]”: 9.15.
Next, “AATTATCAGGAATGATGTACTGAAATAAAAAAAAAA [XGTACX_site3280]”: 6.19.
Next, “CACAGACACCCATACACACACATACCCATATATATA [CACACA_site5023]”: 7.23; “ATTTTATTTAAATACACACACATATATATATTATAT [CACACA_site4607]”: 7.14.
Take “AAAAAAAAAAAAAAAGCACACATCATATTTTAATTC [CACACA_site9109]”: the “gcPBM binding intensity (ln)” value was 6.5.
Next, “ACACAAAAATGAAAAATGAAAAGGGTAATATATATA [CACACA_negctrl_site1490]”: 7.18; “AATAGAAATTATATAAACATAAATGAATAAATAAAT [CACACA_negctrl_site1817]”: 6.01; “ACCATATATTAAAAAGTGCATTAAATATATAAATAT [GTGCAC_site9443]”: 8.38.
To “AGTATTATTTACTGCGCATGCTATTTATATATATTA [TGCATGCA_site876]” belongs 6.83; to “AATTAAATGGATAAATGTACATATGTGAATATATTT [XGTACX_site84]”, 6.94.
Next, “TTTTTCTTTGAATAAATACACACGAGAAATGAAAGT [CACACA_site1688]”: 7.23.
On to “AAAAGGAGCAAATACAAAAAAATGAACAAAAAAAAA [CACACA_negctrl_site716]”, for which the “gcPBM binding intensity (ln)” value is 6.64.
Next, “TTTTGTAATGCTTTTTTTTTTTTTTTTTTTTTTTTT [CACACA_negctrl_site932]”: 7.22; “CATACCTATAGACACACACACACACGCACGCACAAA [CACACA_site6374]”: 7.6.
To “ACATAGATCATAGGTTGTACGAAGGTATCCTTTATT [XGTACX_site694]” belongs 6.18; to “TCATATATATATATATGTACATATTTATGTATGTAT [XGTACX_site6291]”, 6.43.
For “ACTTTTTGAATGTTTGCACACAAATCTCATAATTTT [CACACA_site358]”, the “gcPBM binding intensity (ln)” value turned out to be 10.3.
Next, “ATAATTAACAAATACACACACACACCCAGACAAAAA [CACACA_site4445]”: 7.14; “TGTGTATATATAAATACACACCAAATGTTAATATAT [CACACA_site8501]”: 6.66; “AACAATTAGAATAACGCATGCATTTATAATATAGAA [TGCATGCA_site595]”: 6.67.
To “TTAAAAGAAAATAGGTGTACACATAATATATACATA [XGTACX_site7697]” belongs 6.8; to “AAAATATTAAATATGTGTACATATAATAGTTCAATG [XGTACX_site5957]”, 6.41; to “AAACAAATAAAAATATGTACACATTTTTTCATTATG [XGTACX_site5449]”, 6.35.
To “AATATGTCTTAAAAAAGTACATAAATTTTAACTTCA [XGTACX_site6670]” belongs 5.6.
Consider “TTTTTAATCATAATATGTACATATAAAAATGGTTTG [XGTACX_site3996]”, for which the “gcPBM binding intensity (ln)” value came to 6.47.
Next, “TAATAAATCAAATGCACACACACAAAAAAAAAAAAA [CACACA_site161]”: 10.
With “TTTTTATTTTTTTATGCATGTGATGAAACGTGCCTA [TGCATGCA_site141]”, the “gcPBM binding intensity (ln)” value amounted to 7.89.
To “AGAATATATAAGTATACACACATATATATATATATA [CACACA_site201]” belongs 9.34; to “ATATCGAAAATTTGGTGTACATTTTTATTTGTTCAA [XGTACX_site3094]”, 6.53; to “TTATAAATATTCACTGTGCACTGATGGAATATAAAT [GTGCAC_site9739]”, 10.
